To fix the notation:
B1: 170657327_170667349_2320_CDS_ENSG00000112584_ENST00000537664|human|control|control (ssRNA)
RNA: GGGAGUUCUACAGUCCGACGAUCAAACGCAUGCAAAUCCUCCAGGCAAAGCGUGUCCACCUGGACAAAGAGGUAGAUCAAGAGGCAGCACAAAGCUUGAAAUGGGCUUUCGACAGCCUGCAGCUCUUCUCUUGAGGAGGAAAGCAACAGAGGAUUGAGCAUCA
B2: chr4:129011843:129011844:-_ENSMUSG00000057236_ENSMUST00000102598|mus_hu|FALSE|FALSE (ssRNA)
RNA: GGGAGUUCUACAGUCCGACGAUCAGCAUGGGUCAUCACCAAAUCAUAAAGAAAAGGGGUGUUCUUUUUCCAUAUUUUGUAUUCCUCGUUGAUCACUCGUUCUUCCACUGCGUCGUCGAAGGCUGCGGGGACUGCACUCGGCAACAACAGAGGAUUGAGCAUCA
B3: chr4:76721835:76721836:+_ENSG00000138768_ENST00000264904|hu_mus|hu_hu_hu_mus_True|8_88 (ssRNA)
RNA: GGGAGUUCUACAGUCCGACGAUCGUUUGGCUGGGGUUUCUGAGACGUCUGGAAUACUAACUCAUGUUUGCUAAUAAAUCCUAGUUUCUCUAUGAAAUUCUCUUUGCCAAUCCUCUUCUCUAUUAGUGUUUUAGCUUUCUCUUUCAACAGAGGAUUGAGCAUCA
B4: chr16:17153567:17153568:-_ENSMUSG00000038965_ENSMUST00000090192|mus_mus|FALSE|FALSE (ssRNA)
RNA: GGGAGUUCUACAGUCCGACGAUCAAGCGCACUGUAUUCUCUGCUGGCAGACCCUCCCUCCAAGGUCACCACAAACCUGCUAUAACAGGUUCCCUGCAGAGACCCAGCCAGCACAGUCUGACUACAGAUAGGGACCAUGGGGGUCAACAGAGGAUUGAGCAUCA
B5: chrX:140365796:140365797:-_ENSMUSG00000031285_ENSMUST00000033642|mus_mus|mus_mus_mus_hu_False|48_58 (ssRNA)
RNA: GGGAGUUCUACAGUCCGACGAUCCUUCUCAUUACUCAGUGCCUGCAAGGUUCUGGUUCGGUAGAAGCUACAGUGGGCACUAUGAGUGGGACUUGGAAACCCAUUCAUCCGGGAGCCUCGCAUGUUCCUGGAUGUCUUAUCUCUCAACAGAGGAUUGAGCAUCA
B6: chr7:141441981:141441982:+_ENSG00000106028_ENST00000265304|hu_mus|hu_hu_hu_mus_False|28_28 (ssRNA)
RNA: GGGAGUUCUACAGUCCGACGAUCCUCAUGUCUUACAAACUGACGAAAUACCUGUAACACAGGUCUUCGAAACAUGGCUUCUGUUUUUCUUACAACCUAAUCUUUAGUUAGGCUUUUAAGGAAAGAAAGAAAAGAGAAAAAUGACAACAGAGGAUUGAGCAUCA
B7: chr13:60863204:60863205:+_ENSMUSG00000021559_ENSMUST00000077453|mus_mus|FALSE|FALSE (ssRNA)
RNA: GGGAGUUCUACAGUCCGACGAUCCAGUCCAUAAAGACCCUACCCAAGCCAAGGCUGCCCUCACCGGGACACCACUGAGCUAAUGGAAUUGUAGGACGUGCCACUGUUACAGCUUGAGGCAUAGGCCUCCUGGCCAUUGCCAUCCAACAGAGGAUUGAGCAUCA
B8: chr2:217001844:217001845:+_ENSG00000079246_ENST00000392132|hu_hu|motif|central (ssRNA)
RNA: GGGAGUUCUACAGUCCGACGAUCGCCGACUUGAGGAUUAGCUCUUUUGUCAUAAGCAUAUCGAACUAUGGCCACCAUGUCGGAGUCAUCCAAAGCAUGAAUCAGGGAGGAAAGUGCAACUGCAGCUGCCUCAUCAUCUCUUGCCAACAGAGGAUUGAGCAUCA
B9: chr16:30313237:30313238:-_ENSMUSG00000022533_ENSMUST00000100013|mus_mus|motif|central (ssRNA)
RNA: GGGAGUUCUACAGUCCGACGAUCAACAACCCUGAGGGAGACCCACAUUAAAAAAUCUUAUUUAUUUAAAAAGUUAAAAAGCGGCAUAUCAUUAUUUAACAAUUACUUUACCAGACAUUUCUGUCCUUUAAGUAUGUGCAUAAACAACAGAGGAUUGAGCAUCA
B10: 178710416_178712391_709_3pUTR_ENSMUSG00000057335_ENSMUST00000057037|mouse|control|control (ssRNA)
RNA: GGGAGUUCUACAGUCCGACGAUCUCCCUCAGGCUUGCCAUUGGCCUUGAAAGCUCUUUGUUCAUCCUCCUCGGCGUCUCCCCACCAGGACGGCUGCCCAUAUAAUGGAGUGCCUCGGGGCAUAGCAGAGACAUCCAUGGGUUUCAACAGAGGAUUGAGCAUCA
B11: 87021923_87022128_1712_CDS_ENSG00000005469_ENST00000331536|human|control|control (ssRNA)
RNA: GGGAGUUCUACAGUCCGACGAUCAAGUGGGUCCGUAAAGAGUUCUGGAACAGGAAGACCUUCCUCUUUUGCUAUGAGUAAGAGACCUAAAAGGUGACGAUCAAAUCCUUUUCCAGCUGAACAAUCUUUCAUCAUUUUAUUAUGCAACAGAGGAUUGAGCAUCA
B12: chr7:54823571:54823572:-_ENSG00000132432_ENST00000352861|hu_mus|hu_hu_hu_mus_False|28_28 (ssRNA)
RNA: GGGAGUUCUACAGUCCGACGAUCUCCCAUGAUAGCAAAUCCUAUAGCUGUAGCCAUGGCAAUCUUCUGGAAUUCUUUUCUGUCGGGUUUGGUGCAUCUUUUAACCAGCCGAAUGGAGUCCUUUACAAACUGCCGGCUGGGCUCCAACAGAGGAUUGAGCAUCA
B13: chr3:176740097:176740098:-_ENSG00000177565_ENST00000430069|hu_mus|hu_hu_hu_mus_True|68_78 (ssRNA)
RNA: GGGAGUUCUACAGUCCGACGAUCUGUUUUGUAUACCACAAAAGGAGGCACUUUCAGUAUCUGUAAAAGGUAUUUAAUCCUAAAACAUACUCACCUAGAGGAUAACUCAGGAAAACAAUCUGUUACACUCUAAGACCUACUCCACAACAGAGGAUUGAGCAUCA
B14: chr14:37946427:37946428:-_ENSMUSG00000041028_ENSMUST00000165649|mus_mus|motif|central (ssRNA)
RNA: GGGAGUUCUACAGUCCGACGAUCUGAUGGUUCCAAGGCUGCCUCUUUCAGUUCUUGUCCAGUUUUCCCACGGUGAGUCCGGAUUCUUGUCUUGGUAGCAUAUUCCCUGCUGGGUGUUACGAGCCAUUGGUUCUUUGUGAUGGACAACAGAGGAUUGAGCAUCA
B15: 168329168_168329288_1550_3pUTR_ENSMUSG00000040596_ENSMUST00000169324|mouse|control|control (ssRNA)
RNA: GGGAGUUCUACAGUCCGACGAUCGGAUGAUCACCAUGUCCGUGUUCAUGUUCUCCAUGGAACUCUUCACAGAGUCAGUGGCAUGGCACCGGAAGCCAUUCAGGAUCAGCAUCCCUCGCUGUCUGGGCACAGCUCCAGUUCUCCCAACAGAGGAUUGAGCAUCA
B16: 15288658_15288778_4096_CDS_ENSG00000074181_ENST00000263388|human|control|control (ssRNA)
RNA: GGGAGUUCUACAGUCCGACGAUCGCGGAAGAAGGGCGCGAGCGGCGCGGGGCGGCAGGAGCCCCCGUGGAGACAGGGGGCGGCCGCGCAGCUGGCGUUGCUGGCCCCCGGCGGCGACCCCGGGAAGCUGCGGCAGGAGGGUCCCAACAGAGGAUUGAGCAUCA
B17: chr16:53361121:53361122:+_ENSG00000177200_ENST00000398510|hu_hu|motif|central (ssRNA)
RNA: GGGAGUUCUACAGUCCGACGAUCAAACCUGAAACAAGGGCUAUAAAUACAAGGCAAUAACAGCUAUAAUUCUUUUAGUAACGGCCAACACAUACUUGGAUAUUCUUUCAACUGCAACUUUAGUAUUAUGUAAUUCUACUGAUUCAACAGAGGAUUGAGCAUCA
B18: chr17:7477944:7477945:+_ENSG00000161960_ENST00000293831|hu_hu|FALSE|FALSE (ssRNA)
RNA: GGGAGUUCUACAGUCCGACGAUCAUAACCCUUGAUACAAGGUAGAAUGGCUCGCUGCUGGAUGGCAGAGGGCUUCUCAAAACCAUACGCGUAGAUGCCACGGAGAAGGGACUCCGAGAGGUUCAUGUCAUCAAAGCUGUCAACCAACAGAGGAUUGAGCAUCA
B19: chr18:34476965:34476966:+_ENSMUSG00000005871_ENSMUST00000115781|mus_hu|FALSE|FALSE (ssRNA)
RNA: GGGAGUUCUACAGUCCGACGAUCCAAUUUUCUUCUUAAGGUUGGGCUUGGAGCUUCUUUGAUGAAAGUUGACUGGCGUACUAAUACAGGUCUUUCUGAUCUAUCAGAUUCACUUCCACUUGAUUUAGUUGAAGACAUUCUAGACAACAGAGGAUUGAGCAUCA
B20: chr14:78183846:78183847:+_ENSG00000119705_ENST00000557342|hu_hu|hu_hu_hu_mus_False|1_68 (ssRNA)
RNA: GGGAGUUCUACAGUCCGACGAUCUCUCAGAAAUCUUUCUUCAUCAGAUGUUUGAGCUCCGUGCAAAAGUUUUGGCCUUUGAGCUUGAACGUGGAUCUAUGGGAGGGAAAGCACUGUCAGAAAAGGUAAUUUUUUUUUCCGAAGCAACAGAGGAUUGAGCAUCA
B21: 123332779_123332899_1241_3pUTR_ENSG00000106299_ENST00000223023|human|control|control (ssRNA)
RNA: GGGAGUUCUACAGUCCGACGAUCGGAGGUGCAGCUGUGGGAGCUCUUGAAGGUGGUGGGGGAGGAGCGCCUCUUCCCCUAGCAGGAGGAGGAGGAGGACCUGAGUUGUGUGGAGGGGGAGGAGGAGGAGGUGGCCCUCCCCUUCAACAGAGGAUUGAGCAUCA
B22: chr19:16212804:16212805:+_ENSG00000167460_ENST00000300933|hu_mus|hu_hu_hu_mus_False|78_98 (ssRNA)
RNA: GGGAGUUCUACAGUCCGACGAUCAACAAUUCUGGAGAAGAACAUCAAUGUAACAUGCAAUUAAUUAAAAGCUCAGUCAGAAGGCACAUGGGCAACAAUGAUCACCCCAGCAUUCUCGCUUGGAAUGCUUAAAGACAAUCUGUUCAACAGAGGAUUGAGCAUCA

This is one part of the list.

The assay addresses T1, UNK ZnF1-3 (human, UniProt Q9C0B0 31-174).
T1 sequence: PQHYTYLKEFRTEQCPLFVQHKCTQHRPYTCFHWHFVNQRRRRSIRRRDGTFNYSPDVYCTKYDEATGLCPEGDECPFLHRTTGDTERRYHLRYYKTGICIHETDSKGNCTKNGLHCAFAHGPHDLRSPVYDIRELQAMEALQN
The assay can be described thus: nsRBNS (natural sequence RNA bind-n-seq); RBNS binding buffer (assumed for nsRBNS): 25 mM Tris pH 7.5, 150 mM KCl, 3 mM MgCl2, 0.01% Triton X-100, 500 ug/ml BSA, 20 U/ml SUPERase-In, 4 C; UNK is unkempt and MSI1 is Musashi-1; names of the RNAs are library labels; protein concentration not given here; high values mean tight binding.
Turning to B1, the binding signal came to 1.18 enrichment R.
Consider B2, for which the binding signal came out at 1.4 enrichment R.
Under B3 stands 0.548 enrichment R; under B4, 0.911 enrichment R.
In the case of B5 it was 0.43 enrichment R.
In the case of B6 it was 0.632 enrichment R; in that of B7, 0.912 enrichment R; in that of B8, 1.47 enrichment R.
In turn, B9 came in with a binding signal of 2.41 enrichment R.
Under B10 stands 0.641 enrichment R.
In the case of B11 it was 1.14 enrichment R; in that of B12, 0.833 enrichment R.
Molecule B13 returned a binding signal of 0.841 enrichment R.
In the case of B14 it was 0.409 enrichment R; in that of B15, 1.33 enrichment R; in that of B16, 0.968 enrichment R.
Under B17 stands 1.17 enrichment R; under B18, 1.14 enrichment R.
In the case of B19 it was 0.494 enrichment R.
On to B20, for which the binding signal is 1.44 enrichment R.
For B21, the binding signal is 1.5 enrichment R.
In the case of B22 it was 1.43 enrichment R.

These data come from publication PMC12136788.
